# Data: the supplement of paper PMC4166925
# ± gives the standard deviation of the averaged measurements. Whole data set: some 33,000 sequences, median “E-score (dimensionless, -0.5 to 0.5)” near -0.049, cut for the highest 2% near 0.37. Some of the results follow.
# Tested on: T1, PmTbr T-box DNA-binding domain (GST fusion)
# T1 sequence: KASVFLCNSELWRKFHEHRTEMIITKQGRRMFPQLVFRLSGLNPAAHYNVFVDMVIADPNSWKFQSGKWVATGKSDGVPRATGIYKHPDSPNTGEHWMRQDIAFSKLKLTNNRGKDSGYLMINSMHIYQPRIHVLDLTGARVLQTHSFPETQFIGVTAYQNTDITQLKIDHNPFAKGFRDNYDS
# Experiment: PBM E-score of 8-mer (E-score (dimensionless, -0.5 to 0.5)); Tbr is Tbrain of the sea star Patiria miniata (Pm) or the sea urchin Strongylocentrotus purpuratus (Sp); higher = stronger binding preference; most listed sequences are background and not binding sites
# Conditions: the construct has about 5 more residues each side
# How it was run: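 Using the Universal PBM Analysis Suite, every ungapped 8-mer received an enrichment E-score averaged over duplicate arrays. Probe intensities came from double-stranded Universal Agilent oligonucleotide arrays incubated with 200 nM GST-fused Tbr T-box DNA-binding domain in PBS (pH 7.5). That protein was expressed in BL21 E. coli at 20 °C and purified by glutathione affinity chromatography.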
row,Sequence,PBM E-score of 8-mer
1,CCTACCGA,-0.157 ± 0.0054
2,ACGGATTG,-0.0811 ± 0.0095
3,GATGCTGC,-0.232 ± 0.012
4,GCATTGCA,-0.0859 ± 0.03
5,AAGGGCAC,0.057 ± 0.087
6,CGGAGTCC,-0.183 ± 0.043
7,CGCGGCTA,0.0806 ± 0.068
8,ACGCAACC,-0.0326 ± 0.08
9,ACTCATAA,-0.114 ± 0.035
10,CTCTAAAG,-0.228 ± 0.016
11,AGCTCATG,-0.0399 ± 0.099
12,CTGACGCC,0.318 ± 0.0083
13,CTGCCCCC,-0.345 ± 0.02
14,AAAGGTAG,-0.0277 ± 0.0096
15,ACCACCTA,0.205 ± 0.0085
16,ATCCCTAG,-0.00496 ± 0.042
17,CACTGAAC,0.0119 ± 0.0057
18,ACGCGGTC,0.0856 ± 0.035
19,CGCCCCAC,0.0368 ± 0.00072
20,AGGACTCC,-0.326 ± 0.051
21,AGCTTGCC,0.0454 ± 0.0096
22,AACGAGCC,-0.319 ± 0.096

row,Sequence,PBM E-score of 8-mer
1,GCGATGGA,-0.00065 ± 0.015
2,AGTATATA,-0.0889 ± 0.0048
3,CCACTAGA,-0.233 ± 0.046
4,ACGTGGAG,-0.178 ± 0.025
5,AGACTGTC,-0.112 ± 0.036
6,CCGGCTAC,-0.11 ± 0.03
7,CCCACGAG,0.0603 ± 0.024
8,CTTGCCTC,-0.126 ± 0.0064
9,ATGCCCTA,-0.258 ± 0.0039
10,CCTCTTCG,0.0574 ± 0.043
11,CCAAATAG,-0.0315 ± 0.032
12,CTGAAAAC,-0.0017 ± 0.078
13,CATAAATA,-0.113 ± 0.065
14,CGGTGTAC,-0.0932 ± 0.052
15,GAGGTATC,-0.108 ± 0.0036
16,ATACTGAC,-0.134 ± 0.051
17,TCGAACGA,-0.0363 ± 0.084
18,ACCCATCC,-0.237 ± 0.015
19,GAGCAATA,-0.185 ± 0.0054
20,AGCACTTC,0.313 ± 0.012
21,AAGTGGGG,0.189 ± 0.07
22,CATTAGTA,-0.141 ± 0.053

row,Sequence,PBM E-score of 8-mer
1,TCGATAGA,0.0213 ± 0.016
2,TCATCAAA,-0.128 ± 0.047
3,TCGTTAAA,-0.0308 ± 0.12
4,CACATCTC,0.169 ± 0.049
5,ACCGTTAT,0.109 ± 0.012
6,ACTCATCA,-0.00865 ± 0.0078
7,AATCGATA,0.132 ± 0.053
8,AGGCACCA,-0.171 ± 0.024
9,CCTCCAAG,-0.0919 ± 0.026
10,ATTAACAA,0.173 ± 0.14
11,GAACACCA,0.0994 ± 0.0056
12,AGAGCCCG,-0.24 ± 0.017
13,ACGCCTAC,0.261 ± 0.034
14,AATAGTTA,-0.0226 ± 0.045
15,GAATGACC,-0.13 ± 0.034
16,CCTTCCGC,0.219 ± 0.025
17,GAGGATCC,-0.0137 ± 0.048
18,GTCTCGTA,-0.16 ± 0.0046
19,ACACATGC,0.313 ± 0.041
20,CTCAAGCA,-0.2589 ± 0.00066
21,AATCATGC,-0.121 ± 0.018
22,TAAACAGA,0.158 ± 0.016

row,Sequence,PBM E-score of 8-mer
1,ATCACCTA,0.392 ± 0.022
2,CATTCTGC,0.0492 ± 0.069
3,AAGTGGAG,-0.269 ± 0.042
4,ATCCGTTC,-0.166 ± 0.0096
5,AACGGTGA,0.176 ± 0.036
6,AATACAAT,-0.334 ± 0.023
7,CACGACGA,-0.0644 ± 0.054
8,ATGAGATC,-0.271 ± 0.074
9,CAAATTAA,0.00713 ± 0.076
10,CAAAACGA,0.0243 ± 0.034
11,AACCAATG,-0.267 ± 0.0029
12,GCGTATGA,-0.0712 ± 0.044
13,AATTATAG,-0.276 ± 0.017
14,AAGCCAAC,-0.215 ± 0.02
15,ATCAACAT,-0.163 ± 0.076
16,AGGTAAGA,-0.252 ± 0.06
17,CTAGCGAG,0.162 ± 0.12
18,TGCCTCCA,-0.314 ± 0.032
19,CAGCGTGC,-0.0551 ± 0.019
20,ATTTTCAC,0.217 ± 0.07
21,CCAGTCCC,-0.0516 ± 0.072
22,TTCGTCAA,0.166 ± 0.072

row,Sequence,PBM E-score of 8-mer
1,CCCCATGC,-0.155 ± 0.1
2,AAGAACGT,0.0982 ± 0.085
3,CTACTATC,-0.0875 ± 0.067
4,ATCAGTAC,-0.0998 ± 0.043
5,ACGGGCAA,-0.133 ± 0.057
6,CAGACCCG,0.201 ± 0.0028
7,CAATTCAG,-0.0904 ± 0.014
8,GTCTAAAC,-0.1 ± 0.016
9,CGATCGAC,0.182 ± 0.012
10,ATTCAATA,-0.13 ± 0.031
11,TAGCATGA,-0.143 ± 0.0037
12,TTCATCAA,-0.132 ± 0.029
13,TATTCTAA,-0.168 ± 0.075
14,AGGATAAG,-0.133 ± 0.011
15,CGAATATC,0.00707 ± 0.03
16,CACCTGAG,0.37535 ± 0.00034
17,GCGGCTAA,0.116 ± 0.025
18,GACCAGGA,-0.164 ± 0.074
19,TGGGTGAA,-0.158 ± 0.043
20,ACAGGAAT,-0.0353 ± 0.015
21,CTGCACAG,0.0206 ± 0.07
